Consider one molecule from US20130064827A1 (published 2013).

The assay deals with T1, IL-17R extracellular domain (ECD) (residues 1-288), Examples 33/34 (human, UniProt Q96F46 33-320).
T1 construct: range 1-288; Migrated as a monomer; also called IL-17R ECD
The assay can be described thus: SPR (BIAcore 1000), IL-17 immobilized, IL-17R ECD in solution, 1:1 model.

B1: IL-17, recombinant, Examples 33/34 (ligand)
chain: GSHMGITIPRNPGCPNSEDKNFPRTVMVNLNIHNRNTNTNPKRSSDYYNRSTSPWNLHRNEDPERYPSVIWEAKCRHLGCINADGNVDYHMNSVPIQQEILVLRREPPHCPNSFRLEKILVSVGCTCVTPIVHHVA
Molecule B1 registered a dissociation constant Kd of 72 nM, a koff of 0.00067 s⁻¹ and a kon of 9300 M⁻¹ s⁻¹.
